Screen size: about 190,000 compounds; about 400 (0.21%) were called active. This list was built around the results that the source calls inconclusive (neither active nor inactive); the mix of calls is not that of the screen.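 The calls were made as follows: active = percent activity GTP binding at least 20 points away from the 100% baseline, either down as inhibitor or up as activator; inconclusive = compound flagged as likely green fluorescent from well-wide comparison; inactive = the rest.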
biological target: Cell division control protein 42 homolog (Homo sapiens) (UniProt P60953); assay: wildtype Cdc42 fluorescent GTP binding changes, either direction – biochemical, multiplex bead flow cytometry, Bodipy-GTP, primary screen (AID 761); details: GST-Cdc42 beads, at 10 µM, actives lie on both sides;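 also: median bead fluorescence of bound Bodipy-FL-GTP at 100 nM; 0% = excess unlabeled GTP control and 100% = no compound control; below 100% means less GTP binding so inhibitor and above means activator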
Sequence of UniProt P60953 (P60953 whole entry, looked up): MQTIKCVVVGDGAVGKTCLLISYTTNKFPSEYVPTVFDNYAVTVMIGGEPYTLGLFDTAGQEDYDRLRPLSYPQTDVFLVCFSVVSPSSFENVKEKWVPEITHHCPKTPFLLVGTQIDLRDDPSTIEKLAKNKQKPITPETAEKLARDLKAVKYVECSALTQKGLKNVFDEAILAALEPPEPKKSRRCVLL

SMILES	percent activity (GTP binding)
CC(=O)c1cccc(NC(=O)NCc2cccs2)c1	inconclusive: 96%
Cn1c(CNC(=O)c2ccco2)nnc1SCC(=O)Nc1c(F)cc(F)cc1Br	inactive: 97%
Clc1cccc(Cl)c1CSc1nnc(-c2sccc2-n2cccc2)o1	inactive: 95%
O=C(NC1=NCCS1)c1ccc(Cl)s1	inconclusive: 102%
Cc1cccn2c(=O)c(/C=N/O)c(N3CCOCC3)nc12	inconclusive: 95%
CCCOc1ccc(N2C(=O)CC(N(CCc3ccc(OC)cc3)C(=O)/C=C/C(=O)O)C2=O)cc1 (stereo not drawn)	inconclusive: 93%
COc1cc2c(cc1OC)-c1cc(N3CCCCCC3)nc(=O)n1CC2	inactive: 98%
Cc1cccc(C2C3=C(Nc4[nH]n(-c5ccccc5)c(=O)c42)c2ccccc2C3=O)c1 (stereo not drawn)	inconclusive: 95%
CN(C)/C=C(\C#N)C(=O)Nc1ccc(O)cc1F	inactive: 101%
COC(=O)c1cn(C(=O)c2cccc(C)c2)c2ccccc12	inconclusive: 95%
Cc1nonc1OCCNc1ccc([N+](=O)[O-])cc1[N+](=O)[O-]	inconclusive: 225%
CCCCOC(=O)Nc1nnc(CC)s1	inconclusive: 106%
O=C(CN1CCC2(CC1)OCCO2)c1ccc2cc[nH]c2c1	inconclusive: 113%
Cc1noc(NS(=O)(=O)c2ccc(NC(=O)CSc3nnc4c(n3)[nH]c3ccccc34)cc2)c1C	inconclusive: 71%
N#CC1=C(N)Oc2n[nH]c(-c3cccnc3)c2C1c1ccc([N+](=O)[O-])o1 (stereo not drawn)	inconclusive: 93%
COC(=O)COc1ccc(S(=O)(=O)NCc2ccco2)cc1	inconclusive: 104%
O=c1c(-c2ccccc2)n[nH]c2ccccc12	inconclusive: 105%
C=CCC1(C#N)C(SC)=NC2=C(C(=O)CC(C)(C)C2)C1c1ccc(Br)cc1 (stereo not drawn)	inactive: 95%
C=CCNc1cnn(-c2ccccc2)c(=O)c1Cl	inactive: 100%
O=C(Oc1c(Br)cc(Br)c2cccnc12)N1CCCCC1	inconclusive: 93%
O=C(CNC(=S)N(Cc1ccccc1)Cc1ccccc1F)NCc1ccc(Cl)cc1	inconclusive: 91%
Cc1cccc2cc(C#N)c(NCCNC(=S)NCCCN3CCOCC3)nc12	inconclusive: 94%
O=C(NCCCNc1ccc(C(F)(F)F)cc1[N+](=O)[O-])c1ccc(Cl)cc1	inconclusive: 86%
CCCOP(=O)(OCCC)C(Nc1ccc(C(=O)O)cc1)c1ccccc1 (stereo not drawn)	inconclusive: 91%

SMILES	percent activity (GTP binding)
Cc1cc(C(=O)CN2C(=O)C(=O)N(Cc3ccccc3)C2=O)c(C)n1-c1ccccc1F	inconclusive: 85%
S=C(Nc1ccc(N2CCOCC2)cc1)Nc1ccc2snnc2c1	inactive: 95%
c1ccc(CNc2nc(-c3cccs3)nc3ccccc23)cc1	inconclusive: 103%
CC(/C=N/NC(=O)c1cccs1)=C\c1ccco1	inconclusive: 92%
COc1ccc(-c2cc(C(F)(F)F)nc(S(=O)(=O)CCCC(=O)Nc3cccnc3Cl)n2)cc1OC	inactive: 92%
O=C(Nc1sc2c(c1-c1nc3ccccc3[nH]1)CCCC2)C1CC1	inconclusive: 105%
CC(C)Oc1ccc(Cc2cnc(=S)[nH]c2N)cc1	inactive: 98%
CCOc1cc(/C=C2/NC(=O)NC2=O)cc([N+](=O)[O-])c1O	inconclusive: 67%
CCC(C(=O)Nc1sc(C(N)=O)c(C)c1C(=O)OC)c1ccccc1 (stereo not drawn)	inconclusive: 84%
COc1cc2[nH]c(=S)nc(NCCC(C)C)c2cc1OC	active: 56%
N#Cc1cccc(NC(=O)c2ccccc2C(=O)O)c1	inconclusive: 102%
COc1cc(/C=C/C(=O)Nc2ccc3nc4n(c(=O)c3c2)CCCC4)cc(OC)c1OC	inconclusive: 75%
COc1ccc(Cc2nnc(NS(=O)(=O)c3ccc(Cl)cc3)s2)cc1OC	inconclusive: 91%
Cc1ccc(NC(=S)Nc2ccc3cn[nH]c3c2)cc1C	inconclusive: 97%
CCOc1ccccc1N(CC(=O)NC1CCCCC1)S(C)(=O)=O	inconclusive: 105%
O=C1CN(C(=S)NC(=O)c2ccc(-c3ccccc3)cc2)CCN1	inactive: 105%
CCN1C(=O)C2C(C1=O)N1C(c3cccs3)C3C(=O)N(CC)C(=O)C3N1C2c1cccs1 (stereo not drawn)	inactive: 101%
Cc1ccc2nc(N3C(=O)C(O)=C(C(=O)c4ccco4)C3c3cccs3)sc2c1 (stereo not drawn)	inconclusive: 98%
CCN1C(=O)C(CC(=O)Nc2ccc(Br)cc2)N(CCCc2ccccc2)C1=S (stereo not drawn)	inactive: 97%
CC(C)(C)c1nn2cnnc2n(/N=C/c2ccc(O)cc2)c1=O	inconclusive: 104%
CCCCC(=O)NCCc1ccc(OC)cc1	inconclusive: 106%
CCn1cc(Br)c(C(=O)Nc2ccc(OC)cc2)n1	inconclusive: 100%
CCCc1cc(=O)n2[nH]c(-c3ccc(OC)cc3)nc2n1	inactive: 97%
Cc1cc(C)cc(NC(=O)CSc2ccccc2)c1	inactive: 91%

SMILES	percent activity (GTP binding)
CC(C)C(C(=O)NCC1CCCO1)N(Cc1ccco1)C(=O)CNS(=O)(=O)c1ccc(F)cc1 (stereo not drawn)	inconclusive: 108%
CC(C)CC1NC(=O)N(CC(=O)Nc2ccc3c(c2)CCC3)C1=O (stereo not drawn)	inconclusive: 96%
COc1cc(C2CC(=O)Oc3c2c(=O)n(C)c2ccccc32)ccc1O (stereo not drawn)	inconclusive: 93%
Cc1cccc(C(=O)Nc2cccc(-c3ccc4nncn4n3)c2)c1	inconclusive: 92%
O=C(COc1cccc(Br)c1)N/N=C1\CCSC1	inconclusive: 91%
COC(CNC(=O)c1cccnc1)OC	inconclusive: 93%
CCN1CCN(C(=S)NCC(C)C)CC1	inactive: 100%
COc1cc2[nH]c(=O)c(C(=O)NCCCN3CCCCC3)c(O)c2cc1OC	inconclusive: 105%
O=C(c1cc(Br)ccc1Cl)N1CCCC1	inconclusive: 93%
O=C(Oc1c(Br)cc(C(=S)N2CCOCC2)cc1Br)c1ccc(Cl)cc1	active: 75%
CC1=Nc2nc(N3CCCCC3)c(C#N)c3c4c(nc(c23)N1)N(c1ccc(C(C)C)cc1)C(=O)C4	inactive: 93%
O=C(Nc1nn[nH]n1)c1cc(-c2ccc(Cl)c(Cl)c2Cl)nc2ccccc12	inconclusive: 83%
CC(=O)Nc1ccc(SCC(=O)N(C)C2CCS(=O)(=O)C2)cc1 (stereo not drawn)	inactive: 95%
O=C1c2ccccc2C(=O)N1c1cccnc1	inconclusive: 92%
Cc1ccc(C)c(-n2nnnc2SCC(=O)c2c(N)n(C)c(=O)n(C)c2=O)c1	inactive: 93%
CC(C)(C)SCCNC(=O)c1ccc(Cl)c([N+](=O)[O-])c1	inconclusive: 103%
COc1cc(OC)cc(C(=O)Nc2ccc(S(=O)(=O)Nc3nc(C)cc(C)n3)cc2)c1	inconclusive: 93%
O=C(CN1CCN(c2ccccc2)CC1)Nc1ccccc1Sc1ccccc1	inactive: 98%
O=C(NCCc1c[nH]c2ccccc12)c1cccc(S(=O)(=O)Nc2ccccc2Cl)c1	inactive: 93%
NC(=O)CN(c1ccc([N+](=O)[O-])cc1)S(=O)(=O)c1ccccc1	inactive: 102%
COc1ccc(N2C(=O)C3C4C=CC(C4)C3C2=O)nn1 (stereo not drawn)	inactive: 101%
CN(C(=O)COC(=O)c1cc(S(=O)(=O)N2CCOCC2)c(Cl)cc1Cl)C1CCS(=O)(=O)C1 (stereo not drawn)	inactive: 96%
Cc1ccc2nc(Nc3ccccc3)c(/C=N/O)c(=O)n2c1	inconclusive: 94%
CC(=O)NC1=NN(C(C)=O)C2(S1)C(=O)N(C(C)C)c1ccc(C)cc12 (stereo not drawn)	inconclusive: 107%

SMILES	percent activity (GTP binding)
Cc1ccc2c(c1)Oc1ccc([N+](=O)[O-])cc1C(=O)N2	inconclusive: 90%
OCCc1ccc(-c2ccc(Cl)cc2)o1	inconclusive: 103%
CN1C(=O)c2ccc(NC(=O)CCS(=O)(=O)c3ccccc3)cc2C1=O	inactive: 96%
Cc1ccc(NC(=O)NC(=O)CSc2n[nH]c(N)n2)c(C)c1	inconclusive: 96%
O=C1C=C(NCc2ccc3c(c2)OCO3)CC(c2ccccc2)C1 (stereo not drawn)	inactive: 99%
COCCCN1C(=O)C(=O)/C(=C(/O)c2ccc(C)cc2)C1/C=C/c1ccccc1 (stereo not drawn)	inconclusive: 88%
O=C(O)c1cccnc1SCc1cccc(Cl)c1	active: 131% [activator]
COc1ccc(/C=C(/NC(C)=O)C(=O)O)cc1	inactive: 95%
Cc1ccc(S(=O)(=O)Nc2ccc3nc(-c4cccn4C)[nH]c3c2)cc1	inactive: 101%
Cc1nccn1CCCNC(=O)CC1C(=O)NCCN1Cc1ccc(Cl)c(F)c1 (stereo not drawn)	inconclusive: 95%
NC(=O)C1CCN(C(=O)COc2ccc(S(=O)(=O)NCc3ccccc3)cc2Cl)CC1	inconclusive: 98%
COC(C(=O)NC1CC1)c1ccccc1 (stereo not drawn)	inconclusive: 103%
O=C1/C(=C\c2ccc(-c3ccccc3[N+](=O)[O-])o2)C(c2ccccc2)=NN1c1ccccc1	inconclusive: 88%
O=C(NNC(=S)NC(=O)c1cccs1)c1ccc(NC(=O)c2ccccc2)cc1	inconclusive: 92%
O=C(Nc1ccccc1)Nc1cccc2cccnc12	inconclusive: 97%
CCOc1ccc(NC(=S)N2CCC(N(C)CCN3CCOCC3)CC2)cc1	inactive: 101%
COc1cc2c3nnc(-c4ccc(F)cc4)c-3cn(Cc3cccc(F)c3)c2cc1OC	inconclusive: 153%
COc1ccc(-c2cc(=O)c3c(O)c(OC)c(O)cc3o2)cc1	inactive: 86%
O=c1[nH]c(CN2CCCC2)nc2sc3c(c12)CCC3	inconclusive: 163%
COc1cc2c(cc1OC)CN(c1nc(-c3cccnc3)nc3ccccc13)CC2	inactive: 91%
CCOC(=O)c1ccc2ncc(-c3ccccc3)nc2c1	inconclusive: 78%
